Test results: patent EP0263529A1, “Factor IX-derived peptides” (F. HOFFMANN-LA ROCHE AG, priority 1986, dated 1988)
Part of at least one peptide drawing is inferred or uncertain, most often the ends. Some compounds share one wording; it may come from a single statement. Non-standard residues stand in square brackets, D forms with d. Residues, ends and D or L forms follow the SMILES beside them. No end group written: not given here. pGlu = O=C1CC[C@@H](C(=O)O)N1

What was measured:
[1] = test system: zellulären Rezeptoren des Faktors IX/IXa; test: Inhibition of binding of [125I]-factor IX/IXa to cultured bovine aortic endothelial cell monolayers; set-up: species or system Rind; settings: for Inhibierung der Bindung von [¹²⁵I]-Faktor IX an Endothelzellen: bis zu millimolaren Mengen
[2] = Prothrombin time and activated partial thromboplastin time of citrated blood samples after peptide alone; type: in vivo, Kaninchen
Kaninchen = test: Wessler venous stasis thrombosis model with factor IXa as procoagulant; type: in vivo
[3] = test system: durch die Faktoren IXa-VIII vermittelte Aktivierung von Faktor X; test: Endothelial cell-dependent, factor IXa-VIII mediated activation of factor X (factor Xa formation rate, chromogenic substrate); type: cell-based; settings: for Wirkung auf die Faktor Xa Bildung: bis zu einer Konzentration von 2 mM; for Inhibierung der Aktivierung des Faktor X: result in words
[4] = result in words, 4-5 h at 4°C, bovine aortic endothelial cells
[5] = Kaninchen, 8 mg peptide without factor IXa, samples 1, 3, 5 and 10 min after infusion
[6] = bis zu Konzentrationen von 1 mM

## DRVYIHPFHL [Angiotensin I, Asp-Arg-Val-Tyr-Ile-His-Pro-Phe-His-Leu, reference compound]
[1]
  Inhibierung der Bindung von [¹²⁵I]-Faktor IX an Endothelzellen: keine Inhibierung

## KQYVDGDQC [Nonapeptid, Lys-Gln-Tyr-Val-Asp-Gly-Asp-Gln-Cys]
[1]; [4]
  Inhibierung der Bindung von [¹²⁵I]-Faktor IX: ungefähr gleiche Wirksamkeit

## DGDQC [Pentapeptid, Asp-Gly-Asp-Gln-Cys]
[2]; [5]
  Prothrombinzeit: unverändert
  aktivierte partielle Thromboplastinzeit: unverändert
Kaninchen; Rinderfaktor IXa (600 ng) with 10 mg peptide
  Thromben, Grad (Skala von 0-4): 1
[1]; [4]
  Inhibierung der Bindung von [¹²⁵I]-Faktor IX: ungefähr gleiche Wirksamkeit

## C[C@@H](O)[C@H](NC(=O)[C@H](CC(=O)O)NC(=O)[C@H](CCCNC(=N)N)NC(=O)[C@H](CCCCN)NC(=O)[C@H](CS)NC(=O)[C@H](Cc1ccccc1)NC(=O)[C@H](CCC(N)=O)NC(=O)[C@H](CCCCN)NC(=O)[C@H](CS)NC(=O)[C@H](CCCNC(=N)N)NC(=O)CNC(=O)[C@H](CC(N)=O)NC(=O)[C@@H](N)CCCCN)C(=O)N[C@@H](CC(=O)O)C(=O)N[C@@H](CC(N)=O)C(=O)N[C@@H](CCCCN)C(N)=O [Hexadecapeptid, Lys-Asn-Gly-Arg-Cys-Lys-Gln -Phe-Cys-Lys-Arg-Asp-Thr-Asp-Asn-Lys-NH₂] (H-KNGRCKQFCKRDTDNK-NH2)
[1]; [6]
  Inhibierung der Bindung von [¹²⁵I]-Faktor IX: völlig unwirksam
[3]
  Wirkung auf die Faktor Xa Bildung: Keines dieser Peptide hatte bis zu einer Konzentration von 2 mM eine Wirkung

## FWKQYVDGDQ-NH2 [Decapeptid, Phe-Trp-Lys-Gln-Tyr-Val-Asp-Gly-Asp-Gln-NH₂]
[1]; [4]
  Inhibierung der Bindung von [¹²⁵I]-Faktor IX: ungefähr gleiche Wirksamkeit
[3]
  Inhibierung der Aktivierung des Faktor X: wirkte auch als ein Inhibitor

## KQYVDGDQCESN-NH2 [Lys-Gln-Tyr-Val-Asp-Gly-Asp-Gln-Cys-Glu-Ser-Asn-NH₂]
[2]; 70 mg peptide alone
  Prothrombinzeit: unverändert
  aktivierte partielle Thromboplastinzeit: unverändert
Kaninchen; peptide dose 50 mg
  Thromben, Grad (Skala von 0-4): 1
Kaninchen; peptide dose 70 mg
  Thromben, Grad (Skala von 0-4): 1
Kaninchen; peptide dose 100 mg
  Thromben, Grad (Skala von 0-4): 0
[1]; [4]
  Inhibierung der Bindung von [¹²⁵I]-Faktor IX: ungefähr gleiche Wirksamkeit

## KQYVDGDQ-NH2 [Octapeptid, Lys-Gln-Tyr-Val-Asp-Gly-Asp-Gln-NH₂]
[1]; [4]
  Inhibierung der Bindung von [¹²⁵I]-Faktor IX: ungefähr gleiche Wirksamkeit

## DGYRLAEDQKSC-NH2 [andere Dodecapeptid, Asp-Gly-Tyr-Arg-Leu-Ala-Glu-Asp-Gln-Lys-Ser-Cys-NH₂]
[1]; [6]
  Inhibierung der Bindung von [¹²⁵I]-Faktor IX: völlig unwirksam
[3]
  Wirkung auf die Faktor Xa Bildung: Keines dieser Peptide hatte bis zu einer Konzentration von 2 mM eine Wirkung

## CC(C)[C@H](NC(=O)CNC(=O)[C@@H]1CCC(=O)N1)C(=O)N[C@@H](CC(N)=O)C(=O)N[C@@H](CC(=O)O)C(=O)N[C@@H](CC(N)=O)C(=O)N[C@@H](CCC(=O)O)C(=O)N[C@@H](CCC(=O)O)C(=O)NCC(=O)N[C@@H](Cc1ccccc1)C(=O)N[C@@H](Cc1ccccc1)C(=O)N[C@@H](CO)C(=O)N[C@@H](C)C(=O)N[C@@H](CCCNC(=N)N)C(=O)O [Fibrinopeptid B, PGA-Gly-Val-Asn-Asp-Asn-Glu-Glu-Gly-Phe-Phe-Ser-Ala-Arg, reference compound] ([pGlu]GVNDNEEGFFSAR-OH)
[1]
  Inhibierung der Bindung von [¹²⁵I]-Faktor IX an Endothelzellen: keine Inhibierung

## ADSGEGDFLAEGGVR [Fibrinopeptid A, Ala-Asp-Ser -Gly-Glu-Gly-Asp-Phe-Leu-Ala-Glu-Gly-Gly-Val-Arg, reference compound]
[1]
  Inhibierung der Bindung von [¹²⁵I]-Faktor IX an Endothelzellen: keine Inhibierung

## EGEQC [Glu-Gly-Glu-Gln-Cys, reference compound]
[1]; [4]
  Inhibierung der Bindung von [¹²⁵I]-Faktor IX: unwirksam
[3]
  Inhibierung der Aktivierung des Faktor X: fehlende Inhibierung
